Source: PubChem BioAssay AID1508623 (National Center for Advancing Translational Sciences (NCATS), 2021)
Out of some 48,000 compounds screened, about 450 (0.94%) were called active. Inconclusive results (about 19%) are left out. Calls come from the whole dose curve; as a rule, active = well fitted inhibition curve with a large enough effect; inconclusive = small, poorly fitted or top-dose-only effect; inactive = no such curve, though single readings can be large or run the other way. Some of the results follow.

Assay: Primary qHTS for Identification of Small Molecule Inhibitors of Huntingtin Promoter Activity; note: nearly all actives have a fitted effect of over 50% in size
Details: HEK293 HTT promoter firefly luciferase reporter (activity 0% = vehicle and -100% = no light), 24 h; series mostly up to 57.5 µM; activity change, negative = inhibition: at the top concentration
Method in brief: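 Firefly luciferase readout (Dual-Glo, 10 min RT) after 24 h, 37 °C compound exposure (final up to 57.5 uM) of HEK293 reporter cells cultured 24 h beforehand; PTC124 at 50 uM final as control inhibitor; activity scaled vehicle 0%, zero RLU -100%.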

Activity change, negative = inhibition, inactive:
CCOC(=O)C1CCN(S(=O)(=O)c2cc(Br)cc3c2N(C(=O)CC)CC3)CC1 -1.44%
COc1ccc(NC(=O)C(=O)NCCc2csc(-c3ccc(Cl)cc3)n2)cc1OC -30%
CCOc1cc2sc(N3CCC(C(=O)Nc4ccc(C)cc4C)CC3)nc2cc1Br 77.7%
CCN1CCN(c2ncc3c(n2)CCN(Cc2cc(F)cc(F)c2)C3)CC1 -23.8%
COc1ccccc1NC(=O)C(=O)NCC(c1ccc2c(c1)OCO2)N1CCN(C)CC1 (stereo not given) -8.11%
Cn1c(=NC(=O)c2ccc(S(=O)(=O)N3CCCc4ccccc43)cc2)sc2cc(F)ccc21 -22.2%
CC(C)OCCCn1c(=O)c2ccccc2n2c(-c3ccc(F)cc3)nnc12 2.84%
Cc1cccc(C(=O)Nc2c(-c3ccccc3)nc3cc(C)ccn23)c1 13.6%
Cc1ccc(S(=O)(=O)NC(=O)NC2CCCC2)cc1 7.68%
COC(=O)c1ccc(NC(=O)CSc2nc(=O)[nH]c3c2CCCC3)cc1 -8.81%
CCOC(=O)COc1ccc([N+](=O)[O-])cc1-c1ccnc2cc(-c3ccc(Cl)cc3)nn12 -4.76%
CN(C)c1ccc(C(CNC(=O)c2ccccc2)N2CCc3ccccc32)cc1 (stereo not given) 22.9%
CC(C)CC(=O)Nc1cccc(-c2nc3ccccc3[nH]2)c1 44.2%
Cc1cccc(-c2noc(-c3ccccc3OCC(=O)Nc3ccc([N+](=O)[O-])cc3)n2)c1 -0.142%
COc1ccccc1CNc1nc(-c2ccco2)nn1S(=O)(=O)c1ccc2ccccc2c1 -6.48%
Cc1ccccc1C(=O)Nc1sc2c(c1C(=O)NCc1ccco1)CCC(C(C)(C)C)C2 (stereo not given) -11.1%
Cc1ccc(SCCNC(=O)CN(c2ccccc2)S(=O)(=O)N(C)C)cc1 -21.2%
CCOc1cc(C(=O)OCc2cc(=O)n3nc(CC)sc3n2)cc(OCC)c1OCC -1.06%
CCC(=O)N1CCc2cc(Br)cc(S(=O)(=O)N3CCCC(C(=O)Nc4ccc(C(C)C)cc4)C3)c21 (stereo not given) -6.47%
CCc1cnc2c(c1SCC(=O)c1ccccc1)c(=O)n(C)c(=O)n2C -13.8%
CCOc1sc2nc(C)n(CC(=O)Nc3cccc(C)c3)c(=O)c2c1C 0.0317%
Cc1scc2c1N(C(=O)CN1CCN(C)CC1)c1ccccc1NC2=O 24.5%
COC(=O)c1ccccc1NC(=O)c1c(C)oc2ncn(C)c(=O)c12 -4.93%
COc1ccc(OCc2nc3ccccc3n2Cc2ccccc2Cl)cc1 -17.7%
Cc1ccc(CNS(=O)(=O)c2cc3[nH]c(=O)c(=O)[nH]c3cc2C)cc1 -1.41%
Cc1cn2c(=O)cc(COc3ccccc3NC(=O)c3ccco3)nc2s1 -2.29%
Cc1c(C(=O)NCc2cccc(Cl)c2)sc2nc3n(c(=O)c12)CCC3 6.35%
Cc1ccc(S(=O)(=O)NC2(C(F)(F)F)C(=O)Nc3c2c(=O)[nH]c(=O)n3-c2ccccc2)cc1 (stereo not given) -3.56%
CCN1CCN(CCCNC(=O)c2cnn(-c3ccc(C)cc3C)c2C2CCN(C(=O)OC(C)(C)C)CC2)CC1 -19.2%
NC(=O)c1nc(-c2ccc(F)c(F)c2)nc2c1[nH]c(=O)n2-c1cccc(Cl)c1 -11%
Cc1ccc(C(=O)Nc2ccc3nc(SCC(=O)N4CCCc5ccccc54)sc3c2)cc1 -25.9%
O=C(COC(=O)c1cc(-c2ccccc2)nc2ccccc12)c1ccc(Br)cc1 -2.01%
Cc1ccc(CNC(=O)Cc2ccc(NC(=O)N3CCSc4ncccc43)cc2)cc1 -24.4%
CC(C)(C)NC(=O)N1CCC(C(=O)O)CC1 -8.98%
CCCNC(=O)c1ccc(Cn2c(=O)c3cccn3c3cccnc32)cc1 -10.9%
CCc1ccccc1NC(=O)c1ccc2c(c1)nnn2C1CCCC1 -9.68%
CCOc1ccccc1NC(=O)CN1C(=O)COc2ccc(S(=O)(=O)NC3CCCC3)cc21 -21.5%
COCCCNC(=O)CCCn1c(=O)c2cccn2c2ccccc21 18.1%
COc1ccccc1CNC(=O)CCC1N=C2c3ccccc3N=C(SCc3ccc(Cl)cc3)N2C1=O (stereo not given) -24.9%
Cc1ccc(N2CCN(S(=O)(=O)c3ccc(Cl)c4ccccc34)CC2)c(C)c1 2.59%
O=C(Nc1cccc(C(F)(F)F)c1)c1cccc(C(=O)Nc2cccc(C(F)(F)F)c2)c1 -24.3%
CCOC(=O)c1c(C)c(-c2ccccc2)n(CC(=O)Nc2cc(C)cc(C)c2)c1C -13.1%
O=C(CSc1nnc(-c2cccc(F)c2)c(-c2cccc(F)c2)n1)NC1CCCCC1 -26.7%
O=C(Cn1ncc2c(=O)oc3ccccc3c21)N1CCN(c2ccc(Cl)cc2)CC1 6.08%
COc1ccc(-n2nc3c(N4CCC(C(=O)NCCc5ccccc5)CC4)nnc(C)c3c2C)cc1 -26.9%
COc1cccc(CSc2nc(-c3ccccc3F)nc3c2Cc2c(CO)cnc(C)c2O3)c1 -15.1%
COc1ccc2cc(CNc3ccc(C)cc3)c(=O)n(CC(=O)Nc3cccc(Cl)c3C)c2c1 -28.8%
COc1cc(Cl)c(C)cc1NC(=O)c1cnn(-c2ccc(F)cc2F)c1C1CCN(C(=O)OC(C)(C)C)CC1 -21.8%
CCOC(=O)c1c(NC(=O)COc2ccccc2Br)sc2c1CCCCC2 -9.15%
CC(C)(C)c1ccc(C(=O)N(Cc2ccc(F)cc2)Cc2ccco2)cc1 -25.5%
Cc1ccc(-c2nnc(Nc3ccccc3)c3ccccc23)cc1S(=O)(=O)N1CCN(C)CC1 1.98% [at 11.5 µM]
COc1ccc(-c2nc(CSc3nnc(C)n4c3cc3oc(C)cc34)c(C)o2)cc1OC 1.94%
CCn1cc2nc(SCc3ccc(F)cc3)n(CCc3ccccc3)c(=O)c2n1 -31.4%
Cc1ccc(CNC(=O)CCc2cn(Cc3ccc(C)cc3)c3ccccc23)cc1 -16.5%
CCOc1ccc(-c2cc3nc(C4CCN(C(=O)OC(C)(C)C)CC4)c(C(=O)Nc4c(C)cccc4C)cn3n2)cc1 -30.7%
Cc1cc(C)c(Cn2c(=O)n(CCCCC(=O)NCc3ccccc3Cl)c(=O)c3ccccc32)c(C)c1 -1.56%
CCOC(=O)c1c(C)sc(-c2c(-c3cccc(Cl)c3)[nH]c3c2c(=O)n(C)c(=O)n3C)c1O 20.7%
COc1ccc(NC(=O)C2=C(C)Nc3ncnn3C2c2ccc[nH]2)cc1 (stereo not given) -16.2%
Cc1c(C(=O)N(C)C)sc2c1c(=O)n(-c1ccc(F)cc1)c(=O)n2Cc1ccccc1C#N 9.29%
CCc1ccccc1N(C)S(=O)(=O)c1ccc2c(c1)C(C)(C)C(=O)N2C -28.7%
CC(=O)Nc1ccc(NC(=O)C2CCN(c3cnccn3)CC2)cc1 -3.61%
Fc1ccc2c(c1)-c1c(cnc3cc(-c4ccc(Cl)cc4)nn13)CO2 5.94%
CC(=O)N1CCc2cc(CNC(=O)Nc3ccc(Br)c(C)c3)ccc21 -9.08%
COc1cccc(NC(=O)c2csnn2)c1 28.8%
C=Cc1ccc(Cn2ccn(-c3ccc(F)c(F)c3)c(=O)c2=O)cc1 -10.2%
COc1ccc(CN(CCN(C)C)c2ccccn2)cc1 9.42%
CCOc1ccc(CCNC(=O)c2c(C)oc3ncn(CC(C)C)c(=O)c23)cc1OCC 5.53%
CC(=O)N1CCc2c(sc3c2c(=O)n(-c2ccccc2)c(=O)n3CC(=O)Nc2cc(C)cc(C)c2)C1 -2.13%
CC(COc1ccccc1)N(CCCl)Cc1ccccc1 (stereo not given)
CCCCCc1ccc(-c2ccc(Br)cc2)nc1 76.5%
Cc1ccc(-n2nc(C(=O)N3CCN(c4ccccc4F)CC3)c(=O)n(C)c2=O)cc1 -14%
O=C(NCc1ccccc1F)C(=O)NCC(c1ccc2c(c1)OCO2)N1CCOCC1 (stereo not given) -17.5%
CCc1ccc(NC(=O)CSc2nc(C)c(C(=O)Nc3ccccc3)c(-c3ccc(OC)c(OC)c3)c2C#N)cc1 -17.3%
Cc1cc(Br)ccc1NC(=O)CSc1c2c(nc3ccccc13)CCC2 -27.4%
CC(C)(C)C(=O)CSc1nc2ccsc2c(=O)n1Cc1ccccc1Cl -27.3%
CSc1ccc(CCNC(=O)c2cc(C)nc3c2c(C)nn3-c2cccc(F)c2)cc1 -7.35%
COc1ccc(NC(=O)c2cc3cc(C)ccc3[nH]2)cc1 20.1%
COc1ccccc1N1CCN(c2ccc(=O)n(CC(=O)NCc3ccc(F)cc3)n2)CC1 -1.34%
COc1cccc(CSc2nc3n(n2)C(c2ccc(C(=O)O)cc2)C(C(=O)Nc2ccccc2)=C(C)N3)c1 (stereo not given) 12.9%
O=C(OCc1cc(=O)n2nc(-c3cccs3)sc2n1)c1ccccc1Cl 8.8%
CCOc1ccccc1NC(=O)CSc1nc2c(oc3ccccc32)c(=O)n1-c1ccc(F)cc1 -20.5%
CSc1ccccc1-c1nnc(NC(=O)c2ccc3c(c2)OCCO3)o1 11.1%
Cc1c(C(=O)N2CCCCCC2)c(S(=O)(=O)NCc2ccccc2)c(C)n1C 1.68%
O=C(Nc1ccc(F)c(Cl)c1)Nc1c[nH]c(=O)[nH]c1=O 10.3%
O=C(CSc1nc(=O)n(CCN2CCOCC2)c2c1CCC2)Nc1ccc(Cl)c(Cl)c1 -33.5%
CC(=O)Nc1ccccc1-c1nc2ccccc2n(CC(=O)Nc2cccc(C)c2C)c1=O -2.23%
Cc1ccc2nc(SCc3nc(-c4ccc(Cl)cc4)no3)[nH]c2c1 -15.6%
Cc1cc2c(cc1S(=O)(=O)Nc1cccc(Cl)c1C)n(C)c(=O)c(=O)n2C -13.4%
CCOC(=O)c1cc(-c2ccccc2)n(CCC(=O)Nc2ccccc2CC)c1C -4.9%
COc1ccc(C2CC(=O)N(Cc3ccc(C)cc3)c3c2c(C)nn3-c2nc(C)cc(C)n2)c(OC)c1 (stereo not given) -4.28%
CCCCC12CN3CC(C)(CN(C1)C3c1c[nH]c3ccccc13)C2=O (stereo not given) -16.1%
Cc1cccc(CSc2nc3c([nH]c4ccccc43)c(=O)n2C)c1 -5.75%
CC(=O)N1c2ccc(S(=O)(=O)Nc3ccc(C)c(Cl)c3)cc2CC1C (stereo not given) -30.1%
CCOc1ccc(CC(=O)Nc2c(C(=O)c3ccccc3)oc3ccc(Cl)cc23)cc1OCC 1.93%
COc1cc2c(cc1OC)n(CC(=O)c1cc(C)ccc1C)c(=O)n1nc(CCn3nc(C)cc3C)nc21 -21%
